Experimental data published in PubChem BioAssay AID485294 (National Center for Advancing Translational Sciences (NCATS), 2010).
Out of some 370,000 compounds screened, about 150 (0.041%) were called active. The shares of active, inactive and inconclusive entries below differ from those in the screen. The call rests on the fitted dose curve; in most records, active means well fitted inhibition curve with a large enough effect; inconclusive means small, poorly fitted or top-dose-only effect; inactive means flat fitted curve, though single readings scatter. No potency is given beside an inconclusive call; the fits are too rough.

Target: Beta-lactamase (Escherichia coli (strain K12)) (UniProt P00811)
UniProt P00811, sequence (P00811 whole entry, looked up): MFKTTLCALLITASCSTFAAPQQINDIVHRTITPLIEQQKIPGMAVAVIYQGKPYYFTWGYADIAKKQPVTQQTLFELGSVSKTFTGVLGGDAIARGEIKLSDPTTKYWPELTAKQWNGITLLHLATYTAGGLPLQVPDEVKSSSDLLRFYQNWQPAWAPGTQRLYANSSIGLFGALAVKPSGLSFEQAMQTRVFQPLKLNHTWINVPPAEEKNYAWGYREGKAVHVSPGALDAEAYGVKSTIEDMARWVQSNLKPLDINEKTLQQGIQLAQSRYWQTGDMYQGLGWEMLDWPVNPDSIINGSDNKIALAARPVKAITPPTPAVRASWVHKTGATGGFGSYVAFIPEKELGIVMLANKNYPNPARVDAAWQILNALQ
Assay: qHTS Inhibitors of AmpC Beta-Lactamase (assay with detergent); further: nearly all actives have a fitted effect of over 25% in size;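 on activity change, negative = inhibition: 0% = no-compound wells and -100% = no-enzyme wells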
Details: AmpC hydrolysis of nitrocefin, absorbance 480 nm, 0.01% Triton; activity change, negative = inhibition: at 114 µM (top of the series)
In short: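 AmpC (5.3 nM in the dispensed reagent) in 20 mM phosphate pH 7.0 with 0.01% (detergent screen) or 0.0001% Triton X-100 was preincubated with compounds for 15 min at room temperature. Nitrocefin was then added from an 800 uM solution, and hydrolysis was followed at 480 nm.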
Potency means the concentration at half of the fitted maximal effect; tags describe the fitted curve by direction and shape.

| SMILES | Potency | activity change, negative = inhibition |
| --- | --- | --- |
| CCN(C(=O)COC(=O)c1oc2ccc(OC)cc2c1C)C1CCCCC1 | inconclusive [inhibitor, full curve, poor fit] | – |
| S=c1[nH]nc(-c2cnccn2)n1-c1ccccc1 | inconclusive [inhibitor, full curve, poor fit] | – |
| COc1cc(/C=C/C(=O)OCC(=O)NC2CC2)cc(S(=O)(=O)N2CCc3ccccc32)c1OC | inconclusive [inhibitor, partial curve, poor fit] | – |
| COc1ccc(C(=O)c2coc3ccc(O)cc23)cc1 | – | inactive: -0.315% |
| O=C(CN1C(=O)NC2(CCCCC2)C1=O)NCc1cccs1 | inconclusive [inhibitor, full curve, poor fit] | – |
| COc1ccc(CN2CCN(C3CCOCC3)CC2CCO)c(C)c1C (stereo not given) | – | inactive: 1.75% |
| O=C(CCCCCn1c(=S)[nH]c2ccccc2c1=O)N1CCC2(CC1)OCCO2 | inconclusive [inhibitor, partial curve, poor fit] | – |
| Cc1nn(C)cc1/C=C(/C#N)C(N)=O | inconclusive [inhibitor, single point] | – |
| O=c1c2ccccc2nnn1CSc1nnc(-c2cccnc2)n1-c1ccccc1F | inconclusive [inhibitor, full curve] | – |
| CC(C)C(=O)NC(NC(=O)C(C)C)c1ccc([N+](=O)[O-])cc1 | – | inactive: -6.64% |
| Cc1cc2c(cc1C)[n+](C)cn2CC(O)COCc1ccccc1 (stereo not given) | – | inactive: -8.47% |
| COc1ccc(C(=O)c2ccc(N(C)C)cc2)c(OC)c1 | – | inactive: 4.68% |
| O=C(CCNC(=O)c1ccc(Br)cc1)NNC(=O)c1ccccc1O | inconclusive [inhibitor, full curve, poor fit] | – |
| COc1ccc(C2C=C(c3ccccc3)Nc3nc(NS(=O)(=O)c4ccccc4)nn32)cc1 (stereo not given) | – | inactive: -0.478% |
| Cc1ccsc1C(=O)OCC(=O)Nc1c(Cl)cccc1C(F)(F)F | inconclusive [inhibitor, partial curve, poor fit] | – |
| COc1ccc(C(=O)/C(C#N)=N/Nc2cccc([N+](=O)[O-])c2)cc1 | – | inactive: -1.26% |
| O=C(c1ccc(NS(=O)(=O)c2cccc([N+](=O)[O-])c2)cc1)N1CCCCCC1 | inconclusive [inhibitor, full curve, poor fit] | – |
| COc1ccc2nc(NC(=O)C3CCN(S(=O)(=O)c4cccnc4)CC3)sc2c1 | inconclusive [inhibitor, full curve, poor fit] | – |
| CN(C(=O)COC(=O)COc1ccccc1Cc1ccccc1)c1ccccc1 | inconclusive [inhibitor, full curve] | – |
| COc1ccc(C(CNC(=O)CCNC(=O)c2ccccc2OC)N2CCCC2)cc1 (stereo not given) | inconclusive [inhibitor, full curve, poor fit] | – |
| CCOc1ccc(C(=O)Nc2nnc(SCc3cc(=O)n4ccccc4n3)s2)cc1 | – | inactive: 17.7% |
| N#C/C(=C\c1ccccc1C(=O)O)c1nc2ccccc2[nH]1 | – | inactive: 0.581% |
| CCOc1ccc(-n2cc(-c3ccccc3)c3c(Nc4cccc(F)c4)ncnc32)cc1 | – | inactive: 6.41% |

| SMILES | Potency | activity change, negative = inhibition |
| --- | --- | --- |
| CC(=O)c1ccc(OCC(O)CN2CCCC(C)C2)cc1 (stereo not given) | inconclusive [inhibitor, partial curve, poor fit] | – |
| O=C(NCc1ccc2[nH]c3c(c2c1)CCCC3)N1CCOCC1 | – | inactive: -16.6% |
| O=C(Nc1ccc(Cl)cn1)Nc1ccccc1F | – | inactive: -13.9% |
| COc1ccc(-c2noc(CCc3ccccc3)n2)cc1 | – | inactive: -11.3% |
| O=C(Nc1nccs1)C1CC2CCC1C2 (stereo not given) | inconclusive [inhibitor, full curve] | – |
| CCc1ccc(CNC(=O)CCc2nc(-c3cccs3)no2)cc1 | inconclusive [inhibitor, full curve, poor fit] | – |
| COc1cccc(N2C(=O)C3NN=C(C(=O)CN4C(=O)c5ccccc5C4=O)C3C2=O)c1 (stereo not given) | – | inactive: 2.64% |
| CSC1=NC(=O)/C(=C\c2cccc3ccccc23)S1 | inconclusive [inhibitor, full curve, poor fit] | – |
| Cc1ccc2c(Cl)cc(Cl)c(OCC(=O)N3CCOCC3)c2n1 | inconclusive [inhibitor, full curve, poor fit] | – |
| CCn1c(=O)n(CC)c2cc(S(N)(=O)=O)ccc21 | inconclusive [inhibitor, full curve, poor fit] | – |
| CN(CC(=O)Nc1cccc(F)c1)C(=O)c1cn(-c2ccccc2)nc1-c1ccccc1 | inconclusive [inhibitor, single point] | – |
| CCn1c(N)c(C(=O)Nc2ccccc2C(=O)OC)sc1=S | – | inactive: 0.176% |
| C=CCSc1nc(N)c2c(C)c(C)sc2n1 | inconclusive [inhibitor, full curve, poor fit] | – |
| O=C(c1ccco1)N1CCN(Cc2cc(=O)c(OCc3ccc([N+](=O)[O-])cc3)co2)CC1 | inconclusive [inhibitor, full curve, poor fit] | – |
| CCn1c(CSc2nc(C)cc(C)n2)nnc1SCC(=O)Nc1nc(-c2ccccc2)cs1 | inconclusive [inhibitor, full curve] | – |
| O=C(CCC1CCCN(C(=O)C2CCCC2)C1)NCc1ccc(F)c(F)c1 (stereo not given) | – | inactive: 1.48% |
| CN(CCOc1ccccc1)C(=O)c1ccc2c(c1)OCO2 | inconclusive [inhibitor, full curve] | – |
| O=[N+]([O-])c1ccc(F)cc1Oc1nc(-c2cccnc2)nc2ccccc12 | inconclusive [inhibitor, full curve, poor fit] | – |
| Cc1cc(C)c(C)c(C(=O)CSc2nnc(C)c(=O)[nH]2)c1C | inconclusive [inhibitor, full curve, poor fit] | – |
| CC(C)Cc1nc2n[nH]c(N)c2c2c1COC(C)(C)C2 | inconclusive [inhibitor, single point] | – |
| COc1ccc(-c2nc(CS(=O)CC(=O)N3CCC4(CC3)OCCO4)c(C)o2)cc1 (stereo not given) | inconclusive [inhibitor, partial curve] | – |
| CC(NC(=S)NCCc1ccccc1)C(c1cccs1)N1CCN(Cc2ccccc2)CC1 (stereo not given) | inconclusive [inhibitor, full curve, poor fit] | – |
